Source: PubChem BioAssay AID1345083 (National Center for Advancing Translational Sciences (NCATS), 2018)
The campaign covered roughly 94,000 compounds. About 6,200 (6.6%) were called active. Inconclusive results, whose numbers are uncertain, are shown with a selection of clear calls. The call rests on the fitted dose curve; in most records, active means well fitted inhibition curve with a large enough effect; inconclusive means small, poorly fitted or top-dose-only effect; inactive means flat fitted curve, though single readings scatter. Potencies of inconclusive entries are doubtful fits and often do not repeat.

Experiment: Cytotoxic Profiling in HEK 293 Cell Line of Diverse Libraries Using Quantitative High-Throughput Screening; further: nearly all actives have a fitted effect of over 60% in size
Conditions: HEK 293 viability, ATP luminescence (CellTiter-Glo), 48-72 h; series mostly up to 115 µM
Summary of the method: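 HEK 293 cells seeded at 250 cells/well were exposed to compound for 48 or 72 hr at 37 degree Celsius. Viability taken as ATP content by CellTiter-Glo luminescence.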
Potency means the concentration at half of the fitted maximal effect; tags describe the fitted curve by direction and shape.

SMILES | Potency
Cc1occc1C(=O)N1CCC(CCC(=O)N2CCN(c3ccccc3)CC2)CC1 | inconclusive: 89.1 µM [inhibitor, single point]
CC(=O)Nc1ccc(CN2CC3CCC(C2)N3c2ccc(C(F)(F)F)cc2)cc1 | active: 22.4 µM
Cc1noc2ccc(-c3ccccc3Oc3ccccc3)nc12 | inconclusive: 100 µM [inhibitor, partial curve]
CN(C)c1ccc(-c2nnc([C@H]3CCN(Cc4ccccn4)C3)o2)cc1 | inconclusive: 89.1 µM [inhibitor, partial curve, poor fit]
CCN1CCN(C(=O)c2nc3sccn3c2-c2ccc(C(F)(F)F)cc2)CC1 | inactive
COc1ccc(-c2cn(CCn3[nH]c(=O)c4ccccc4c3=O)nn2)cn1 | inactive
COc1ccc(NC(=O)c2cnc3c(c2)N(C(=O)CCc2ccccc2)CCC3)cn1 | inconclusive: 112 µM [inhibitor, partial curve]
Cc1noc([C@@H](C)NS(C)(=O)=O)c1C(=O)O | inactive
COc1cccc(N2CC3(C2)CN(c2ccccc2)C(=O)O3)c1 | inconclusive: 112 µM [inhibitor, single point]
CCS(=O)(=O)N1CCc2n[nH]c(=O)n2CC1 | inactive
CCOC(=O)CCNC(=O)N1c2ccccc2CC1c1nc(C2CC2)no1 (centres undefined) | inactive
COc1ccc(CC(=O)N2CCN(c3ccc4nnc(C5CC5)n4n3)CC2)cc1 | inconclusive: 50.1 µM [inhibitor, partial curve, poor fit]
O=C(c1ccc2c(c1)OCO2)N1C[C@@H](CO)[C@H](c2ccccn2)C1 | inactive
Cc1noc(C)c1[S+](=O)([O-])NC1CCN(c2ccc3nnc(-c4ccccc4)n3n2)C1 (centres undefined) | inconclusive: 79.4 µM [inhibitor, partial curve, poor fit]
COc1ccc(CCC(=O)N2CCC(Cc3nncn3-c3ccccc3)C2)cc1 (centres undefined) | inactive
CCCCS(=O)(=O)Nc1ccc([C@H]2OCC(=O)N(Cc3ccccc3)[C@@H]2CO)cc1 | inconclusive: 50.1 µM [inhibitor, partial curve, poor fit]
O=C(c1ccoc1)N1CCC(Cc2nc(-c3ccncc3)n[nH]2)C1 (centres undefined) | inactive
Cn1ccnc1CNc1nccc(-c2cnn(-c3ccccc3F)c2)n1 | inconclusive: 79.4 µM [inhibitor, partial curve, poor fit]
O=C(c1ccccc1F)N1CCCC(c2nn(-c3ccc(Cl)cc3)c(=O)[nH]2)C1 (centres undefined) | inconclusive: 56.2 µM [inhibitor, partial curve, poor fit]
COc1ccc(C(=O)N2C[C@@H]3C[C@H](C2)c2c(NC(=O)Nc4ccccc4)ccc(=O)n2C3)cc1 | active: 10 µM
Cc1ccccc1C(=O)N1CCC(C(NC(=O)c2ccccc2Cl)C(=O)N2CCCCC2)CC1 (centres undefined) | inactive
CC(=O)Nc1ccc(C(=O)NC[C@@H]2C=C(C)[C@H](CC(=O)NCc3ccc(C#N)cc3)C[C@H]2C(C)C)cc1 | inconclusive: 25.1 µM [inhibitor, partial curve]

SMILES | Potency
O=C(NCc1cccs1)c1nc2sccn2c1-c1cccc(C(F)(F)F)c1 | inconclusive: 79.4 µM [inhibitor, partial curve, poor fit]
COCCN1C(=O)c2ccccc2C(C(=O)Nc2nc3ccccc3s2)C12CCCC2 (centres undefined) | inactive
CC1=C[C@@H](CNC(=O)C2CCCCC2)[C@H](C(C)C)C[C@H]1Cc1nc2ccc(F)cc2[nH]1 | active: 28.2 µM
O=C(Nc1ccccc1)N1CCn2c(nn(-c3ccc(F)cc3)c2=O)C1 | inactive
O=C1NCC2(CCN(Cc3cccc4ccccc34)CC2)Oc2ccccc21 | inconclusive: 50.1 µM [inhibitor, partial curve, poor fit]
COC1CCC(C(=O)N2CCCn3nc(C)c(-c4ccccc4Oc4ccccc4)c32)CC1 (centres undefined) | inconclusive: 50.1 µM [inhibitor, partial curve, poor fit]
CNC(=O)c1noc([C@@H]2CC(F)(F)CN2Cc2cn(C)nc2C)n1 | inactive
Cc1cnc(CC2CCN(C(=O)C(C)c3ccccc3)CC2)n1Cc1ccc(F)cc1 (centres undefined) | active: 35.5 µM
COc1cccc(-c2ccc(NC(=O)C3CCCN(C(=O)CC(F)(F)F)C3)cc2)c1 (centres undefined) | inconclusive: 20 µM [inhibitor, full curve, poor fit]
O=C(NCCc1ccc(Cl)cc1)c1cc(-c2cccs2)c2cccn2n1 | active: 44.7 µM
CCc1nc2c(c(-c3ccc(OC)cc3)n1)CCN(Cc1cccc3ccccc13)CC2 | inconclusive: 79.4 µM [inhibitor, partial curve, poor fit]
CCn1cc(C(=O)N[C@@H]2CN(S(C)(=O)=O)C[C@H]2CN(C)C)cn1 | inactive
CCn1ccc2sc(C)c(C(=O)NCc3ccccc3C)c2c1=O | inactive
COc1ccc(-c2[nH]nc3ncc(C(=O)N4CC(O)C4)nc23)c(C)c1 | inconclusive: 11.2 µM [inhibitor, full curve]
O=C(NC1CCCCCC1)c1cc(-c2ccc(Cl)cc2Cl)c2nncn2n1 | active: 39.8 µM
Cc1sc2ccn(CC(C)C)c(=O)c2c1C(=O)NCc1cc(F)cc(F)c1 | inconclusive: 79.4 µM [inhibitor, single point]
O=C(c1ccccc1F)N1CCC2(CC1)NCCc1c2[nH]c2ccccc12 | active: 79.4 µM
COc1nccnc1NC1CCN(C(=O)NCCc2ccccc2)CC1 | inactive
CCOc1cc(CN2CCOc3ccc(C(=O)NCc4ccccc4F)cc3C2)ccc1O | inconclusive: 89.1 µM [inhibitor, single point]
Cc1ccccc1C(=O)N1CC2(Cc3ccccc3N([S+](C)(=O)[O-])C2)C1 | inconclusive: 44.7 µM [inhibitor, partial curve, poor fit]
Cc1nn(-c2ccccc2)c(Oc2cccc(F)c2)c1CCC(=O)NC(C)C | inconclusive: 39.8 µM [inhibitor, partial curve, poor fit]
Cc1ccc(C(=O)NC2CCN(c3cc(-c4ccccc4)[nH]n3)CC2)s1 | inconclusive: 56.2 µM [inhibitor, partial curve, poor fit]
